# Values joined by “and” are separate entries in the source; they are usually repeats but may differ in a detail not shown here. Equal entries are not always repeated. Hit rate of the full screen: of about 420,000 compounds, about 64,000 (15%) were called active. Inconclusive results, whose numbers are uncertain, are shown with a selection of clear calls. The call rests on the fitted dose curve; in most records, active means well fitted inhibition curve with a large enough effect; inconclusive means small, poorly fitted or top-dose-only effect; inactive means flat fitted curve, though single readings scatter. Potencies of inconclusive entries are left out as doubtful fits.
# Assay: qHTS for Inhibitors of human tyrosyl-DNA phosphodiesterase 1 (TDP1): qHTS in cells in absence of CPT; further: nearly all actives have a fitted effect of over 55% in size
# Conditions: DT40 Tdp1-/- hTDP1 cells, no CPT, ATP luminescence, 48 h; activity change, negative = growth inhibition: at 46.2 µM (top of the series) unless noted
# Procedure, shortened: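 A cellular qHTS used chicken DT40 cells lacking endogenous Tdp1 but carrying stably transfected human TDP1. Compounds were applied without camptothecin, and cell growth kinetics were judged by ATP-dependent luminescence after ≥48 hr.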
# On the % scale 0 is the no-effect control and ±100 the full control effect; potency means the concentration at half of the fitted maximal effect; tags describe the fitted curve by direction and shape.
Compound,"activity change, negative = growth inhibition",Potency
O=C(NC1CCCC1)c1ccc(S(=O)(=O)N2CCOCC2)cc1,inactive: -1.37%,
O=c1cc(-c2ccccc2)n2c(SCc3c(F)cccc3Cl)nnc2[nH]1,inactive: -4.85%,
CC(C)c1ccc(NC(=O)C2Cc3c(-c4cccc(C(N)=O)c4)ccnc3O2)cc1 (stereo not drawn),,"inconclusive [inhibitor, partial curve, poor fit]"
COc1ccc(/C=N/NC(=O)c2nn(-c3ccccc3)c(=O)c3c(N)scc23)cc1,,active: 8.2 µM
CCCN1Cc2cccc(C(=O)NCCc3cccc(C)c3)c2C1=O,,"inconclusive [inhibitor, single point]"
O=C(O)C1Cc2ccccc2-c2ccccc2C1,,"inconclusive [inhibitor, partial curve, poor fit]"
COCCn1c(C23CC4CC(CC(C4)C2)C3)n[nH]c1=S,,"inconclusive [inhibitor, single point]"
CCc1ccc(C(O)c2ncc(-c3ccc(C(F)(F)F)cc3)[nH]2)cc1 (stereo not drawn),,"inconclusive [inhibitor, single point]"
c1ccc(Nc2nc(-c3cccs3)cs2)nc1,,"inconclusive [inhibitor, partial curve, poor fit]"
Cc1ccc(-n2c(=O)c3cccnc3n2CC(=O)Nc2cc(Cl)ccc2C)cc1,inactive: -21.3%,
CC1CCN(C(=O)COC(=O)C2CCN(S(=O)(=O)c3ccc(Cl)c(C(F)(F)F)c3)CC2)CC1,inactive: -28.1%,
Nc1ccc2c(c1)C(=O)c1cc(N)c(Cl)cc1-2,inactive: -18.8%,
O=C(CCCN1CCC(C(=O)c2ccc(F)cc2)CC1)c1ccc(F)cc1,inconclusive: -30.5% [inhibitor],"inconclusive [inhibitor, partial curve]"
Cc1cccc(C)c1NC(=O)C(c1cccc(F)c1)N1CCN(C)CC1 (stereo not drawn),,"inconclusive [inhibitor, single point]"
Cc1ccc(C(=O)N2CCN(c3ccccc3)CC2)cc1C,inactive: -16.6%,
CCOc1ccc(CN=C(N)N=C(N)N)cc1Cl,,active: 5.8 µM
O=C(NCC1CCCCC1)c1cc(-c2cc(F)ccc2OCC2CCCO2)n[nH]1 (stereo not drawn),,"inconclusive [inhibitor, single point]"
Cn1ncc([N+](=O)[O-])c1C(=O)Nc1ccc(-c2nc3ccccc3[nH]2)cc1,,active: 18.4 µM
O=C(NC1CC1)c1cccc(S(=O)(=O)N2CCOCC2)c1,,"inconclusive [inhibitor, single point]"
CCOC(=O)C1(C)CCN1C(=O)c1ccc(OC)c(C(F)(F)F)c1 (stereo not drawn),,"inconclusive [inhibitor, single point]"
COc1ccccc1OCC(=O)NCC(c1ccc(Cl)cc1)N1CCOCC1 (stereo not drawn),,"inconclusive [inhibitor, single point]"
O=C(/C=C/c1cccs1)c1ccc(N2CCOCC2)cc1,,"inconclusive [inhibitor, single point]"
Cc1ccn(CCC(=O)NCC2Cc3cc(Cl)cc(-c4ccc5[nH]ccc5c4)c3O2)n1 (stereo not drawn),,"inconclusive [inhibitor, single point]"
CCOC(=O)c1cc2sccc2n1CC(=O)O,inactive: 0.832%,

Compound,"activity change, negative = growth inhibition",Potency
CCc1nc2ccc(C(=O)N3CCN(C(=O)c4ccco4)CC3)cn2c1N(C)Cc1cccs1,,"inconclusive [inhibitor, single point]"
Cc1ccc(NC(=O)CN(C)S(=O)(=O)c2cnc[nH]2)cc1,inactive: -2.67%,
CCc1ccc(/C(C)=N/NC(=O)CNC(=O)/C=C/c2ccco2)cc1,,"inconclusive [inhibitor, single point]"
CC(C)(C)c1ccc(NC(=O)COC(=O)c2ccc([N+](=O)[O-])s2)cc1,inactive: -27.2%,
CCCn1c(C(CO)Nc2nc(C)cs2)nc2ccccc21 (stereo not drawn),inactive: -15.6%,
C=CCn1c(=O)/c(=C/c2ccc(C)o2)s/c1=C(/C#N)C(=O)c1ccccc1,inactive: -27.8%,
COc1ccc(NC(=O)N(C)C[C@H]2Oc3cc(Br)ccc3S(=O)(=O)N([C@H](C)CO)C[C@@H]2C)cc1,,"inconclusive [inhibitor, partial curve]"
COc1ccc(OCCCC(=O)N2CCN(S(=O)(=O)c3cccc(F)c3)CC2)cc1,,"inconclusive [inhibitor, single point]"
O=C(Nc1cccc(C(F)(F)F)c1)c1cc(-c2ccco2)on1,inconclusive: -37.2% [inhibitor],
c1coc(CSc2ncnc3c2oc2ccccc23)c1,,active: 8.2 µM
O=C(CO/N=C/c1ccccc1OC(F)F)NCc1cccs1,inconclusive: -24.3% [inhibitor],
CC1=C(C(=O)N2CCCCCC2)CC(CC(=O)NC(c2ccccc2)c2ccccc2)C(=O)N1Cc1ccccc1 (stereo not drawn),,"inconclusive [inhibitor, single point]"
COc1ccc2c(CC(=O)OCC(=O)Nc3ccccc3[N+](=O)[O-])coc2c1,inactive: -18%,
CCCc1nn2c(=O)cc(COc3ccc(/C=C(\C#N)C(=O)Nc4ccccc4)cc3)nc2s1,inactive: -16.7%,
CCOC(=O)C1(C)C(=O)CC2c3nc4ccccc4cc3CN2C1=O (stereo not drawn),,"inconclusive [inhibitor, single point]"
COc1ccccc1CCNC(=O)CCCn1nc(C)c2c(C)n(-c3ccc(C)cc3)nc2c1=O,,"inconclusive [inhibitor, partial curve]"
O=C1/C(=C\c2ccncc2)SC(=S)N1C1CCCCC1,,"inconclusive [inhibitor, single point]"
COc1ccc(C(CC(=O)NCc2ccccc2Cl)N2Cc3ccccc3C2=O)cc1OC (stereo not drawn),,"inconclusive [inhibitor, single point]"
Cc1cccc(CN(Nc2ccccc2)c2ccccc2)n1,,"inconclusive [inhibitor, partial curve, poor fit]"
Cc1cccc(N(CC(=O)NC(C)(C)C)C(=O)CCC(=O)Nc2ccccn2)c1,inactive: -1.28%,
CCOc1ccc(C(=O)OC2CCN(C)CC2)cc1,,"inconclusive [inhibitor, single point]"
Cc1ccc(OCC(=O)N2CCN(C(=O)c3cccs3)CC2)cc1,inactive: -19.4%,
O=C1CCC/C(=N\NC(=O)c2ccc(COc3cccc4cccnc34)cc2)C1,,"inconclusive [inhibitor, partial curve]"
Cn1ccc2c(OCC(=O)NCc3ccccc3)cccc2c1=O,,"inconclusive [inhibitor, single point]"

Compound,"activity change, negative = growth inhibition",Potency
CC(=O)OC1c2c(ccc3ccc(=O)oc23)OC(C)(C)C1OC(=O)CC(C)C (stereo not drawn),,active: 8.2 µM and active: 18.4 µM
Cc1cc2cc(CNC(=S)Nc3ccc(OC(F)F)cc3)ccc2n1C,,"inconclusive [inhibitor, single point]"
COc1ccccc1NC(=S)N1CCN(Cc2ccccc2)CC1,,"inconclusive [inhibitor, partial curve, poor fit]"
COc1ccccc1CNS(=O)(=O)c1ccc(-c2cnc(C3CC3)o2)cc1,,active: 517 nM and active: 580 nM
NS(=O)(=O)c1cccc(NC(=O)COC(=O)CCC2CCCC2)c1,inactive: 3.35%,
CCOC(=O)c1ccc(NC(=O)CN2CCN(C(=O)c3ccco3)CC2)cc1,inactive: -2.8%,
COc1ccnc(Oc2ccccc2)c1C(=O)N/C=N/OCc1ccc(F)cc1Cl,,"inconclusive [inhibitor, single point]"
Cc1ccc(C)c(/C=N/NC(=S)NCCc2ccccc2)c1,,"inconclusive [inhibitor, single point]"
NC(=NC(=O)c1ccc(OCC(F)(F)F)nc1)c1ccc(Cl)cc1,inactive: -14.2%,
COc1ccc(CNS(=O)(=O)NCc2ccc(C)cc2)cc1OC,,active: 16.4 µM
CCOC(=O)CN(C)Cc1cn(C)nc1-c1ccc(Oc2ccccc2)cc1,,active: 13 µM
CCN(CC)C(=O)N1c2ccccc2CC(N(CC)CC)c2ccccc21 (stereo not drawn),,active: 5.8 µM
O=C(c1cccc(F)c1)N1CCCC(C(=O)N2CCN(c3ccccc3)CC2)C1 (stereo not drawn),,"inconclusive [inhibitor, partial curve]"
CCOC(=O)C1=CCN(S(=O)(=O)c2ccc(C)cc2)C1c1ccc(Cl)cc1 (stereo not drawn),,"inconclusive [inhibitor, single point]"
C=CCn1c(N2CCOCC2)nc2c1c(=O)[nH]c(=O)n2C,inactive: -1.62%,
O=C(c1cc(-c2cccs2)nc2ccccc12)N1CCN(c2ccccc2)CC1,,"inconclusive [inhibitor, single point]"
COc1ccc(Cc2nc(-c3ccc(NC(=O)c4cccnc4)cc3)no2)cc1,,active: 6.51 µM
Cc1cccc(C)c1C(O)c1ncc(-c2cccc3ccccc23)[nH]1 (stereo not drawn),,active: 16.4 µM
CCc1ccccc1NC(=O)CCOc1ccccc1,,inactive
CCN1C(=O)[C@H]2[C@@H](c3ccc(C)cc3)N[C@]3(CCCN(Cc4ccccc4)C3=O)[C@H]2C1=O,,"inconclusive [inhibitor, single point]"
Cn1c(CCNS(=O)(=O)c2ccccc2)nnc1SCc1cccnc1,inactive: 1.02%,
O=C(c1cc2ccccc2oc1=O)N(Cc1cccs1)Cc1cccs1,,active: 23.1 µM
CCc1ccc(C2=NN(CCC(=O)NCCc3ccc(OC)c(OC)c3)C(=O)CC2)cc1,,"inconclusive [inhibitor, single point]"
CCCOc1ccc(-c2nonc2NC(=O)c2cc(OC)c(OC)c(OC)c2)cc1OCCC,,"inconclusive [inhibitor, partial curve]"
